From the RNAGym collection of RNA variant scans (doi:10.1073/pnas.2313332121)
Variants at the floor of the assay are shown more often than the library holds them.

B1: TPR 5TU (parent)
chain: GGAUCUUCUCGAUCUAACAAAAAAGACAAAUCUGCCACAAAGCUUGAGAGCAUCUUCGGAUGCAGAGGCGGCAGCCUUCGGUGGCGCGAUAGCGCCAACGUUCUCAACUAUGACACGCAAAACGCGUGCUCCGUUGAAUGGAGUUUAUCAUG

Variants of: B1
Assay: polymerase ribozyme fitness, log enrichment relative to wild type (log ratio); higher = more active; in vitro selection for triplet polymerase activity
Outline: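 Mutant libraries were PCR-built and transcribed for each subunit of a heterodimeric triplet polymerase ribozyme and selected for one round in triplicate at −7 °C, frozen, before gel excision of extended constructs and streptavidin-bead capture. Input and output libraries were Illumina-sequenced, keeping genotypes with ≥10 input reads and ≥1 read per output. Fitness is a logarithmic ratio of genotype to wild-type enrichment, in base 2, using inverse-variance-weighted replicate averages.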

Row | Variant | polymerase ribozyme fitness (log ratio)
1 | A40G C54U U55A U127A U135C | ≤ -4.2
2 | A41C A47C G71U C96A G141A | ≤ -4.2
3 | A41C G136A | 0.215
4 | A40G A52C C87A | ≤ -4.2
5 | A40U G92C U102C C103G A113G C132G U146C G152U | ≤ -4.2
6 | A41C G59A G86U | -2.6
7 | A41C G50A G86A G140A | ≤ -4.2
8 | A41C C85U | -1.29
9 | A40C U53A A137C G140C | ≤ -4.2
10 | A40C G58A C72U U77G | ≤ -4.2
11 | A40C G83C U90A C95G C149G | ≤ -4.2
12 | A40U U45A G62U C79U G81C C132A U139G | ≤ -4.2
13 | A41C C75U C87A C116G G133U A147U | ≤ -4.2
14 | A41C C108A | ≤ -4.2
15 | A40U C57G C108U | ≤ -4.2
16 | A41C C43U A89U G143C A147C | ≤ -4.2
17 | A40U A47U U61G G83C C96A G140U | ≤ -4.2
18 | A40U G65A C87G A91U C95U G133A U148G | ≤ -4.2
19 | A41C G92U A138C U145A G152A | ≤ -4.2
20 | A40C U45C U90G G92A C114G | ≤ -4.2
21 | A40G G88A G94C C99A A122C G128A G143A | ≤ -4.2
22 | A40G G67A G92A A110C | ≤ -4.2
23 | A40C G84A A97U | -2.32
24 | A40U G94U C118U A121C C125A G143C | ≤ -4.2

Row | Variant | polymerase ribozyme fitness (log ratio)
25 | A40G G65C | ≤ -4.2
26 | A40C G84A C123A C132U U135G G141C U146A | ≤ -4.2
27 | A41C G74A A97C A150U | ≤ -4.2
28 | A41C A89G C96G U101C U111A | ≤ -4.2
29 | A40U G50C C57U U82A | -2.79
30 | A40G C85A U104G C116U G117U | ≤ -4.2
31 | A41C U53C C125G U144A | -2.53
32 | A40G G50U G58C A73G G88A | ≤ -4.2
33 | A40C G67C G70A C93G | ≤ -4.2
34 | A40G C51U A60C U77G U78A G83A U135G | ≤ -4.2
35 | A41C G65A C85A A98U G117C G152U | ≤ -4.2
36 | A41C G83U | -0.922
37 | A41C A52C C63U G65U G86U G143C | ≤ -4.2
38 | A41C C87U | -1.35
39 | A40C G83A C87G | ≤ -4.2
40 | A41C U44A G86U A97G U127G U135A | ≤ -4.2
41 | A41C G48A A60G G83C A110U U144C | ≤ -4.2
42 | A40G G50U U56A G83C | -4.02
43 | A41C A49U U61A G70A U127A | ≤ -4.2
44 | A40U A91C A120C C129A U151A | ≤ -4.2
45 | A40G G65A A91C G100A A107U C108G U146C | ≤ -4.2
46 | A40U C57U U61A U82G A98C A106U C116U A121U C132U A138C | ≤ -4.2
47 | A40G G74C C93U | ≤ -4.2
48 | A40U C85A U144A | -0.577

Row | Variant | polymerase ribozyme fitness (log ratio)
49 | A41C A52C U55A U61A U82G C116U G140U | ≤ -4.2
50 | A41C A91G C118G | -3.64
51 | A40G G86A C95U C103G C108U C125G | ≤ -4.2
52 | A40G A73G G86A | -4.16
53 | A41C U55A U90G G92U | ≤ -4.2
54 | A41C C57A C96U | -0.533
55 | A40U G92A A120C | -2.75
56 | A40G C85G A89G | ≤ -4.2
57 | A40G A73G C87G A113U | ≤ -4.2
58 | A40U C51U G83C | -0.981
59 | A40U G50C G71U C75A | ≤ -4.2
60 | A40G U56A G59U G68A C95A U135A A150U | ≤ -4.2
61 | A40G A52G G86U C108G C132U | ≤ -4.2
62 | A40U G83C A91U | ≤ -4.2
63 | A40G C57G G62A | ≤ -4.2
64 | A40U G59C C132U U145G | -1.94
65 | A40G C85U | -2.16
66 | A40U G88A | -3.65
67 | A40U C54U C85U C108U | ≤ -4.2
68 | A41C U77C G80A U102C U144G | ≤ -4.2
69 | A41C C95G C103U U135G | ≤ -4.2
70 | A40G A73U A89G C93G U104G A106G U134A | ≤ -4.2
71 | A41C C51U | -0.722
72 | A41C G74A C87A C108G | ≤ -4.2

Row | Variant | polymerase ribozyme fitness (log ratio)
73 | A40U A73U U82A A91U C105G A107G A120U G124C A138C | ≤ -4.2
74 | A40G A41C A66U C85G A97C A120G | ≤ -4.2
75 | A41C G74C A97U U111G G117A G152A | ≤ -4.2
76 | A40G G70U A73C G94C | ≤ -4.2
77 | A40U C87U C105U G136U | -2.13
78 | A40C G65A C72G G128U U144C | ≤ -4.2
79 | A41C G50U C95A A120C U134A A142C G143A | ≤ -4.2
80 | A40G A52U C54U U56A U77G G83U C87A G143A | ≤ -4.2
81 | A41C A66G C108G | ≤ -4.2
82 | A40G C75U A89C U148G | ≤ -4.2
83 | A41C U56A C57A A115U C116U | -2.62
84 | A40U G83A C105U A107U A119U | ≤ -4.2
85 | A40C U109C | -3.47
86 | A41C C43U U45A G50C C93U C103A G133U | ≤ -4.2
87 | A40U C125G G128A | ≤ -4.2
88 | A40U G86C C114G A137U | ≤ -4.2
89 | A40G G42U G74C | ≤ -4.2
90 | A40U U56A C75G | -3.97
91 | A40G U56G C85A C103A U146G | ≤ -4.2
92 | A40U G84U C85G A89U G126U | ≤ -4.2
93 | A41C C125G | -0.815
94 | A41C C54U U55G A64U C85G G112A C114G A137C A147C | ≤ -4.2
95 | A40C G58C U77A G88U | ≤ -4.2
96 | A40U G42C U56A C85A | ≤ -4.2

Row | Variant | polymerase ribozyme fitness (log ratio)
97 | A41C G42C A47G G68C C75G A106G A107G | ≤ -4.2
98 | A40U A60U C79U A142C | ≤ -4.2
99 | A40U G152U | -3.71
100 | A40C U44A G59A C93A U109A | ≤ -4.2
101 | A40C G71A C85A A142C A150C | ≤ -4.2
102 | A40G G58C C79G C87U G136U | ≤ -4.2
103 | A40G U56G C85A A115U U134C | -4.09
104 | A41C A73G U145C | -1.73
105 | A40U C85U | -0.107
106 | A41C U56A G94U A98C C116G U151G | ≤ -4.2
107 | A40G U53C A98U A150C | ≤ -4.2
108 | A40G A97G | -1.8
109 | A40U G67C C75A A138G G152A | ≤ -4.2
110 | A40U G68C G124U C129G U135C C149G | ≤ -4.2
111 | A41C C72U G92C G126U G140A | ≤ -4.2
112 | A40U C54A G65A C79G | ≤ -4.2
113 | A41C C87U A120C | -1.53
114 | A41C U45G A47G G59A G65A U77C C87U C99U C105G | ≤ -4.2
115 | A41C G59U C93U C95G U109C G126U | ≤ -4.2
116 | A41C C72U C95U C103U G143C C149G | ≤ -4.2
117 | A40U A49U U78G | ≤ -4.2
118 | A40G G48C A49C | ≤ -4.2
119 | A40G A41C U55A G141C A142C | ≤ -4.2
120 | A40U C54U A97U C99U | -2.64

Row | Variant | polymerase ribozyme fitness (log ratio)
121 | A41C C43U G83A A106C A115G C118A G140A | ≤ -4.2
122 | A40U C43U C96G U130A U144A | ≤ -4.2
123 | A40C U55A G88C | ≤ -4.2
124 | A40G C87A U151C | ≤ -4.2
125 | A40U G48C A52U G68C U90G C93A A120G C132U U146A | ≤ -4.2
126 | A40C G71U C93U G124A A138G U145A C149A | ≤ -4.2
127 | A40U U53A G88C A89C U127A | ≤ -4.2
128 | A41C G48A | -1.3
129 | A40G A41U A64C C69A A73G G84C | ≤ -4.2
130 | A40U U56A C75G C96A C103A A115C | ≤ -4.2
131 | A41C G50A G86A A98G | -3.62
132 | A40G C93U A106G C118U | -3.47
133 | A40U G71A C93G A150C | ≤ -4.2
134 | A40G G58C G59C G68C G80A G94A | ≤ -4.2
135 | A40U C99U G117C | -0.515
136 | A40C G59C C63A G65U C87A C95U C125A G126U | ≤ -4.2
137 | A40U U82A C95G | -1.43
138 | A41C C43A A60G | ≤ -4.2
139 | A40G A49C U146C | ≤ -4.2
140 | A41C A52C A89U A91C G92A A115C | ≤ -4.2
141 | A41C G42A A52U C87U C95U | ≤ -4.2
142 | A40G G92A C105U | ≤ -4.2
143 | A41C A52C U53A C85U C93U U127G | ≤ -4.2
144 | A40U A47C A89U U134G | -2.3

Row | Variant | polymerase ribozyme fitness (log ratio)
145 | A40C U109C C116U C131U A147U | -2.36
146 | A41C A49C G81A A97C C103G G124U U134C | ≤ -4.2
147 | A40G A115U G140U | ≤ -4.2
148 | A40U G59U C75A C85U U109A | ≤ -4.2
149 | A41C G59A G94A A119C | -1.52
150 | A40G A49G | -3.58
151 | A40U G42C U53C G84U A89C | ≤ -4.2
152 | A40U G94A G126A | -0.19
153 | A40U C95U C129A U134C | -3.65
154 | A41C C79A G84A G126C | ≤ -4.2
155 | A40U G86U C108G U148G | ≤ -4.2
156 | A40G C87G | ≤ -4.2
157 | A40G C87U | -1.53
158 | A40G C125G | -2.5
159 | A40U G50C A52G C85A U90C A97U | ≤ -4.2
160 | A41C C79U G94U G100A C125A | -2.23
161 | A40G G48U G58U C76A | ≤ -4.2
162 | A40U A49C U61G C87A G100U U102G G124C | ≤ -4.2
163 | A41C A142G U144C G152A | -3.09
164 | A41C C57A C96U U134C | -0.224
165 | A40G G100C C103A | ≤ -4.2
166 | A41C G100A A142C | ≤ -4.2
167 | A41C G92C U127A | ≤ -4.2
